The list shows a part of the results. Sequences were assembled here from the parent chain. Inactive controls read about 0.05.
B1: TEV protease; numbered along this chain (parent)
chain: MGESLFKGPRDYNPISSSICHLTNESDGHTTSLYGIGFGPFIITNKHLFRRNNGTLVVQSLHGVFKVKDTTTLQQHLVDGRDMIIIRMPKDFPPFPQKLKFREPQREERICLVTTNFQTKSMSSMVSDTSCTFPSGDGIFWKHWIQTKDGQCGSPLVSTRDGFIVGIHSASNFTNTNNYFTSVPKNFMELLTNQEAQQWVSGWRLNADSVLWGGHKVFMVKPEEPFQPVKEATQL

Variants of: B1
Test: raw area under fraction-flipped curve 0-4 h after induction (AUC4h, not background-subtracted), DNA-recorder readout of cleavage of the substrate (dimensionless); higher = more cleavage of the substrate by the protease variant
Settings: temperature: 34 °C; time window: 0-4 h after rhamnose induction
Method: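 In vivo DNA recorder in E. coli TOP10(DE3) ΔrhaA at 34 °C. Each TEVp single-site mutant (parent TEVp 0) is paired with a single-site variant of the 7-mer TEVs (canonical ENLYFQ|S). The substrate sits between flexible linkers in a Bxb1-sfGFP-TEVs-SsrA fusion, so cleavage stabilises Bxb1 and speeds flipping of a recombination array, read by NGS. The value is the raw area under the fraction-flipped curve over 0-4 h after rhamnose induction (AUC4h), with ≥20 reads per time point. It is not background-subtracted; inactive controls average about 0.047.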
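Further: Bxb1 expression induced with 0.2% (w/v) L-rhamnose at OD600 near 0.5, cultures sampled hourly, flipped fraction per protease–substrate barcode pair counted by paired-end Illumina sequencing.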

| Variant | area with substrate EALYFQS | area with substrate ECLYFQS | area with substrate EDLYFQS | area with substrate EELYFQS | area with substrate EGLYFQS | area with substrate EHLYFQS | area with substrate EILYFQS | area with substrate EKLYFQS | area with substrate ELLYFQS | area with substrate EPLYFQS | area with substrate ERLYFQS | area with substrate ESLYFQS | area with substrate EVLYFQS | area with substrate EWLYFQS | area with substrate EYLYFQS | area with substrate EMLYFQS | area with substrate EQLYFQS | area with substrate EFLYFQS | area with substrate ETLYFQS |
| --- | --- | --- | --- | --- | --- | --- | --- | --- | --- | --- | --- | --- | --- | --- | --- | --- | --- | --- | --- |
| MGESLFKGPRDYNPISSSICHLTNESDGHTTSLYGIGFGPFIITNKHLFRRNNGTLVVQSLHGVFKVKDTTTLQQHLVDGRDMIIIRMPKDFPPFPQKLKFREPQREERICLVTTNFQTKSMSSMVSDTSCTFPSGDGIFWKHWIQTKDGQCGSPLVSTRDGFIVMIHSASNFTNTNNYFTSVPKNFMELLTNQEAQQWVSGWRLNADSVLWGGHKVFMVKPEEPFQPVKEATQL [G166M] | 0.0479 | 0.0456 | 0.0875 | 0.0224 | 0.0555 | 0.0344 | 0.0412 | 0.0332 | 0.0527 | 0.0313 | 0.0545 | 0.051 | 0.0435 | 0.0342 | 0.0585 |  |  |  |  |
| MGESLFKGPRDYNPISSSICHLTNESDGHTTSLYGIGFGPFIITNKHLFRRNNGTLVVQSLHGVFKVKDTTTLQQHLVDGRDMIIIRMPKDFPPFPQKLKFREPQREERICLVTTNFQTKSMSSMVSDTSCTFPSGDGIFWKHWIQTKDGQCGSPLVSTRDGFIVGAHSASNFTNTNNYFTSVPKNFMELLTNQEAQQWVSGWRLNADSVLWGGHKVFMVKPEEPFQPVKEATQL [I167A] | 0.0767 | 0.059 | 0.0898 | 0.0805 |  |  |  |  | 0.0537 |  |  | 0.0701 |  | 0.0673 |  | 0.0707 |  |  |  |
| MGESLFKGPRDYNPISSSICHLTNESDGHTTSLYGIGFGPFIITNKHLFRRNNGTLVVQSLHGVFKVKDTTTLQQHLVDGRDMIIIRMPKDFPPFPQKLKFREPQREERICLVTTNFQTKSMSSMVSDTSCTFPSGDGIFWKHWIQTKDGQCGSPLVSTRDGFIVGIHMASNFTNTNNYFTSVPKNFMELLTNQEAQQWVSGWRLNADSVLWGGHKVFMVKPEEPFQPVKEATQL [S169M] | 0.0711 | 0.0688 | 0.0804 | 0.0724 | 0.0312 | 0.0914 | 0.0507 | 0.0519 | 0.066 | 0.0532 | 0.0862 |  | 0.0698 | 0.0738 |  | 0.0662 | 0.0642 |  |  |
| MGESLFKGPRDYNPISSSICHLTNESDGHTTSLYGIGFGPFIITNKHLFRRNNGTLVVQSLHGVFKVKDTTTLQQHLVDGRDMIIIRMPKDFPPFPQKLKFREPQREERICLVTTNFQTKSMSSMVSDTSCTFPSGDGIFWKHWIQTKDGQCGSPLVSTRDGFIVGIHWASNFTNTNNYFTSVPKNFMELLTNQEAQQWVSGWRLNADSVLWGGHKVFMVKPEEPFQPVKEATQL [S169W] | 0.0614 | 0.0448 | 0.05 | 0.0565 |  | 0.0583 | 0.0624 | 0.0639 |  |  |  |  | 0.0753 |  | 0.0676 | 0.0631 |  | 0.0636 |  |
| MGESLFKGPRDYNPISSSICHLTNESDGHTTSLYGIGFGPFIITNKHLFRRNNGTLVVQSLHGVFKVKDTTTLQQHLVDGRDMIIIRMPKDFPPFPQKLKFREPQREERICLVTTNFQTKSMSSMVSDTSCTFPSGDGIFWKHWIQTKDGQCGSPLVSTRDGFIVGIHSAFNFTNTNNYFTSVPKNFMELLTNQEAQQWVSGWRLNADSVLWGGHKVFMVKPEEPFQPVKEATQL [S171F] | 0.0337 | 0.058 | 0.0574 | 0.0477 | 0.0538 | 0.0466 | 0.045 | 0.0476 |  | 0.0366 |  | 0.0638 |  | 0.0475 | 0.0604 | 0.0461 | 0.0638 |  |  |
| MGESLFKGPRDYNPISSSICHLTNESDGHTTSLYGIGFGPFIITNKHLFRRNNGTLVVQSLHGVFKVKDTTTLQQHLVDGRDMIIIRMPKDFPPFPQKLKFREPQREERICLVTTNFQTKSMSSMVSDTSCTFPSGDGIFWKHWIQTKDGQCGSPLVSTRDGFIVGIHSALNFTNTNNYFTSVPKNFMELLTNQEAQQWVSGWRLNADSVLWGGHKVFMVKPEEPFQPVKEATQL [S171L] | 0.0604 | 0.0543 | 0.0558 | 0.0475 |  | 0.0575 | 0.0202 | 0.0578 | 0.0586 |  |  | 0.0576 | 0.0519 | 0.0658 | 0.0632 | 0.06 | 0.0371 |  | 0.0661 |
| MGESLFKGPRDYNPISSSICHLTNESDGHTTSLYGIGFGPFIITNKHLFRRNNGTLVVQSLHGVFKVKDTTTLQQHLVDGRDMIIIRMPKDFPPFPQKLKFREPQREERICLVTTNFQTKSMSSMVSDTSCTFPSGDGIFWKHWIQTKDGQCGSPLVSTRDGFIVGIHSAMNFTNTNNYFTSVPKNFMELLTNQEAQQWVSGWRLNADSVLWGGHKVFMVKPEEPFQPVKEATQL [S171M] | 0.0633 | 0.0614 | 0.0544 | 0.0585 | 0.0744 |  | 0.0537 | 0.0624 |  |  | 0.0639 | 0.0655 | 0.0831 | 0.0647 | 0.0601 |  | 0.0616 |  | 0.0476 |
| MGESLFKGPRDYNPISSSICHLTNESDGHTTSLYGIGFGPFIITNKHLFRRNNGTLVVQSLHGVFKVKDTTTLQQHLVDGRDMIIIRMPKDFPPFPQKLKFREPQREERICLVTTNFQTKSMSSMVSDTSCTFPSGDGIFWKHWIQTKDGQCGSPLVSTRDGFIVGIHSASNFTNKNNYFTSVPKNFMELLTNQEAQQWVSGWRLNADSVLWGGHKVFMVKPEEPFQPVKEATQL [T176K] | 0.0881 | 0.0656 | 0.077 |  | 0.0858 | 0.0799 | 0.0453 |  |  | 0.12 |  | 0.0925 | 0.0882 | 0.0546 | 0.0575 | 0.0919 |  | 0.0899 | 0.0468 |
| MGESLFKGPRDYNPISSSICHLTNESDGHTTSLYGIGFGPFIITNKHLFRRNNGTLVVQSLHGVFKVKDTTTLQQHLVDGRDMIIIRMPKDFPPFPQKLKFREPQREERICLVTTNFQTKSMSSMVSDTSCTFPSGDGIFWKHWIQTKDGQCGSPLVSTRDGFIVGIHSASNFTNTLNYFTSVPKNFMELLTNQEAQQWVSGWRLNADSVLWGGHKVFMVKPEEPFQPVKEATQL [N177L] | 0.218 | 0.127 | 0.137 | 0.163 | 0.137 | 0.126 |  | 0.114 | 0.115 |  | 0.135 | 0.14 | 0.187 |  |  | 0.18 | 0.186 |  |  |
| MGESLFKGPRDYNPISSSICHLTNESDGHTTSLYGIGFGPFIITNKHLFRRNNGTLVVQSLHGVFKVKDTTTLQQHLVDGRDMIIIRMPKDFPPFPQKLKFREPQREERICLVTTNFQTKSMSSMVSDTSCTFPSGDGIFWKHWIQTKDGQCGSPLVSTRDGFIVGIHSASNFTNTSNYFTSVPKNFMELLTNQEAQQWVSGWRLNADSVLWGGHKVFMVKPEEPFQPVKEATQL [N177S] | 0.0911 | 0.0853 | 0.0991 |  | 0.0746 | 0.0921 | 0.0722 | 0.0852 | 0.0852 | 0.109 | 0.0964 | 0.0779 | 0.0739 | 0.082 | 0.117 | 0.0784 | 0.0881 |  | 0.0845 |
